No constants are given. Whether binding was seen depends on the method and setting. In cells and extracts the contact can be indirect. Some entries that bind do so weakly or less than the wild type. For some of these results: Sequences can lack the tags named with a protein.

The chains behind the UniProt entries cited, without tags or fusion partners.
UniProt Q93009: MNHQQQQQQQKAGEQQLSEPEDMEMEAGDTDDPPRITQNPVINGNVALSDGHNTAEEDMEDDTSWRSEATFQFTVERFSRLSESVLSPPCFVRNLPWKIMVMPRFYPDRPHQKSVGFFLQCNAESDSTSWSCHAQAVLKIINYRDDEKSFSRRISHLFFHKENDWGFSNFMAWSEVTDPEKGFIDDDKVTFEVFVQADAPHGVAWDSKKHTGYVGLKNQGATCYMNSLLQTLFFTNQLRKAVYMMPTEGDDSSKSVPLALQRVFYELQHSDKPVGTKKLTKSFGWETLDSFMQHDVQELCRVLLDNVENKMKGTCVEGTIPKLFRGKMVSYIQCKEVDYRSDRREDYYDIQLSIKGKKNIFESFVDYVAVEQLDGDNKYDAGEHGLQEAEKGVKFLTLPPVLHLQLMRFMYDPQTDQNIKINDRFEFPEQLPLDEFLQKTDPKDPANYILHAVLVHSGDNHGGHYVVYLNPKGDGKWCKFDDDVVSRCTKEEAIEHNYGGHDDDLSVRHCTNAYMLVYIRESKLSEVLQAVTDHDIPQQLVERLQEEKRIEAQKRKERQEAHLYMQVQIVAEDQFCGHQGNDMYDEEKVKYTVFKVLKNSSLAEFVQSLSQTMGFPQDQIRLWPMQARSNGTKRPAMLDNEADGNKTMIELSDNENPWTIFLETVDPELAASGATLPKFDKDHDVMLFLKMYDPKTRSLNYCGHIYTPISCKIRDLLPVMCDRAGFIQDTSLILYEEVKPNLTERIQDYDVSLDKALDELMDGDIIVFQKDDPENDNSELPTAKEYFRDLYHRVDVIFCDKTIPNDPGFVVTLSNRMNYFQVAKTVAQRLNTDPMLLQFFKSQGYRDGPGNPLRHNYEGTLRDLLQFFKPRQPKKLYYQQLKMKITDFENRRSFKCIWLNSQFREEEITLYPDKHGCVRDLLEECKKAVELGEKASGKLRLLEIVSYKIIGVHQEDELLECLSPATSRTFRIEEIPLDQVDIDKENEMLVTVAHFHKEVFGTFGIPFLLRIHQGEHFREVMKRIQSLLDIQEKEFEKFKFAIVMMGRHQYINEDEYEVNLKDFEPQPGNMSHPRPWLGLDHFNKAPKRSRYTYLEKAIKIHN
UniProt P51784: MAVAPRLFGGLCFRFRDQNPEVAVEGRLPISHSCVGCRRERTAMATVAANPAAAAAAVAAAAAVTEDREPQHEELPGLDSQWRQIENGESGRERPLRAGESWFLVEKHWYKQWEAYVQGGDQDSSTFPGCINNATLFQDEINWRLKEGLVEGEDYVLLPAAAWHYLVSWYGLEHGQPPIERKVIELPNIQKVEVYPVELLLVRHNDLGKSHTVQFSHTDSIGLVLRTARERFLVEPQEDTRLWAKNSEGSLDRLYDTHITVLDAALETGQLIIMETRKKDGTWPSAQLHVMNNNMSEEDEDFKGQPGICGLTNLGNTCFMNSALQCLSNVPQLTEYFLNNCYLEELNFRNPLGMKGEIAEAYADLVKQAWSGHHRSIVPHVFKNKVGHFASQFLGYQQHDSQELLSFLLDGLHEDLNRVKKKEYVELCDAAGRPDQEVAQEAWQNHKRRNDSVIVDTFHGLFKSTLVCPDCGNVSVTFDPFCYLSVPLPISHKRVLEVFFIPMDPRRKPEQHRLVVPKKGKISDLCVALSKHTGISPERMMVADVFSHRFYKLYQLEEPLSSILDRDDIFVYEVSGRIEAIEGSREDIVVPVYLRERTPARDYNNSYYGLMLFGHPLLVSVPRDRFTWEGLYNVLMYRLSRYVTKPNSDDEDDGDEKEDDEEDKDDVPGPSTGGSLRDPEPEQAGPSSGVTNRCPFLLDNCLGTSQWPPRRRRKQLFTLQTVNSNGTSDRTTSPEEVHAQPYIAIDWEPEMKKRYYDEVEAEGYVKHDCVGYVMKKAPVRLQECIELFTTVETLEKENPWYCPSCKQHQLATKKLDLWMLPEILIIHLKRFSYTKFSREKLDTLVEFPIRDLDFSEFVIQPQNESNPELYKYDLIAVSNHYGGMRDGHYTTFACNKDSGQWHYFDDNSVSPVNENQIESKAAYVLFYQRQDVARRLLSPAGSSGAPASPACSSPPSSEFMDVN

Test [1] deals with Flag-USP7 (Ubiquitin Specific Protease 7), transiently expressed in 293T cells (UniProt Q93009). The experiment in a line: co-IP; 293T cells transiently expressing the Flag-tagged bait (Flag-USP11 or Flag-USP7); Flag-IP; endogenous partners detected by western blot. (In general: Immunoblotting shows a protein as a band on a membrane.)
In test [2] the target is T1, Flag-tagged KCTD6, transiently expressed in 293T cells (UniProt Q8NC69).
T1 sequence: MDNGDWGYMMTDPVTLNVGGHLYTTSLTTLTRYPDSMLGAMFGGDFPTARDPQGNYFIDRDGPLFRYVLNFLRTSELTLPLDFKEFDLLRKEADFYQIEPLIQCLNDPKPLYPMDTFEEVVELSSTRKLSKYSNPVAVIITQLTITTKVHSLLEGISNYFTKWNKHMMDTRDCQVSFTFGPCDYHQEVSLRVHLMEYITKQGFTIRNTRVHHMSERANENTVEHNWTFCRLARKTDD
Put plainly: co-IP; 293T cells co-transfected with Flag- and HA-tagged proteins, harvested 36h post-transfection; Flag-IP (anti-Flag agarose, CSK buffer with 0.5% NP40, 4°C, 4h); western blot.

Test [3] concerns the target T2, Flag-tagged RAE1, transiently expressed in 293T cells (UniProt P78406).
T2 sequence: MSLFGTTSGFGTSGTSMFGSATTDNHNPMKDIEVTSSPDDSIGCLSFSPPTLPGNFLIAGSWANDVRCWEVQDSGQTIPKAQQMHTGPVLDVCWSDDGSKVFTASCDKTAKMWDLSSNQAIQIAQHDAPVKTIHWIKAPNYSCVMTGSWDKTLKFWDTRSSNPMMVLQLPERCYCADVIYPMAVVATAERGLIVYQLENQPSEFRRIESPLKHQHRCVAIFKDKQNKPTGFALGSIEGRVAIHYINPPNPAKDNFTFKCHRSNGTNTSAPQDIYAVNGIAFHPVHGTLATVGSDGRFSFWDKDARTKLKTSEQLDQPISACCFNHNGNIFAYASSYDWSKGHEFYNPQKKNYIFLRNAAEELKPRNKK
The test is described as above.

Test [4] addresses T3, Flag-tagged SPRYD3, transiently expressed in 293T cells (UniProt Q8NCJ5).
T3 sequence: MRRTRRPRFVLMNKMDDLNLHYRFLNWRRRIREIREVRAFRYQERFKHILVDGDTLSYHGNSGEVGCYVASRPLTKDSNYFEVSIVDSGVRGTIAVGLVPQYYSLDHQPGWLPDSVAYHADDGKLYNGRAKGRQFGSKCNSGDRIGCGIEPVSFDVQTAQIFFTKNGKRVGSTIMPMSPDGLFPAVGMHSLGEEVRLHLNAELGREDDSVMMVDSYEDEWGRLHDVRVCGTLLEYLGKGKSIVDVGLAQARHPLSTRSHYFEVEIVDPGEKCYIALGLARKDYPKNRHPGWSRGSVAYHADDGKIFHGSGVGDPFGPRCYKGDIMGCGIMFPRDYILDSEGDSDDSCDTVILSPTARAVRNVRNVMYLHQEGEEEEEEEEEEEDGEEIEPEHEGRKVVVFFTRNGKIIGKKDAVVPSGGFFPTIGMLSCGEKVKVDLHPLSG
The description is as above.

Test [5] has as its target Flag-tagged USP11, transiently expressed in 293T cells (UniProt P51784). The experiment in a line: co-IP; 293T cells transiently expressing the Flag-tagged bait (Flag-USP11 or Flag-USP7); Flag-IP; endogenous partners detected by western blot.
For test [6] the target is unchanged. Put plainly: co-IP; 293T cells co-transfected with Flag- and HA-tagged proteins, harvested 36h post-transfection; Flag-IP (anti-Flag agarose, CSK buffer with 0.5% NP40, 4°C, 4h); western blot.
Test [7] concerns the target PAM (form used in the co-precipitation told only in the discussion) (UniProt O75592). The experiment in a line: co-IP; co-precipitation told only in the discussion, no figure; constructs and cells not told.
Test [8] addresses T4, RAE1 (form used in the co-precipitation told only in the discussion) (UniProt P78406).
T4 sequence: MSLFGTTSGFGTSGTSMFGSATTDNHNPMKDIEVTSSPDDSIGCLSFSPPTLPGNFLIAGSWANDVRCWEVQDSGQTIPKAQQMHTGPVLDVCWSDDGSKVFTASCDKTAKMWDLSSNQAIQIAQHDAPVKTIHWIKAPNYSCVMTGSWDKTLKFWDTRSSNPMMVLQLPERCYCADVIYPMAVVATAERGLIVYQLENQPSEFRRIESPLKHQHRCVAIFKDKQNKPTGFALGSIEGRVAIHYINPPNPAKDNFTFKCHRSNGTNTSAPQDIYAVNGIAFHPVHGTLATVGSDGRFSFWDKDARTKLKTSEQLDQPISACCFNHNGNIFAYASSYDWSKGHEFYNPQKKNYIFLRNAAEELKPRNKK
The description is as above.

The target of test [9] is T5, SPRYD3 (form used in the co-precipitation told only in the discussion) (UniProt Q8NCJ5).
T5 sequence: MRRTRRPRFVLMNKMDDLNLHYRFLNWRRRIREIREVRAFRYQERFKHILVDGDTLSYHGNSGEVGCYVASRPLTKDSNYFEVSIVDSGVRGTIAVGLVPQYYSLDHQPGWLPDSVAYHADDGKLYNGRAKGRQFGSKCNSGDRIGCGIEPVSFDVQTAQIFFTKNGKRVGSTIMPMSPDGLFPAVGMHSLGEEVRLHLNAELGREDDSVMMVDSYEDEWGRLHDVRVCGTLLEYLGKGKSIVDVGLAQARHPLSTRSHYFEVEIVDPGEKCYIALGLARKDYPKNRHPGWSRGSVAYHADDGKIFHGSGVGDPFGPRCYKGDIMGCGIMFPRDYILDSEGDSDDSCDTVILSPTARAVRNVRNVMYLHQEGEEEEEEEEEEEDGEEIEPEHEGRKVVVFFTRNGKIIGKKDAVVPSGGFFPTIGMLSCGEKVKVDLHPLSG
The test is described as above.

On to “endogenous USP11 of 293T cells (from UniProt P51784 1-963) (enzyme)”, for which the binding entry in test [1] is “binds”.

Turning to “HA-tagged USP11, transiently expressed in 293T cells (from UniProt P51784 1-963) (enzyme)”, the binding result in test [2], in test [3] and in test [4] was “binds” throughout.

For the molecule “endogenous PAM (Protein associated with Myc) of 293T cells (from UniProt O75592 1-4678)”, the binding entry in test [1] and in test [5] was “binds” each time.

B1: endogenous SPRYD3 of 293T cells (protein, UniProt Q8NCJ5 1-442)
chain: MRRTRRPRFVLMNKMDDLNLHYRFLNWRRRIREIREVRAFRYQERFKHILVDGDTLSYHGNSGEVGCYVASRPLTKDSNYFEVSIVDSGVRGTIAVGLVPQYYSLDHQPGWLPDSVAYHADDGKLYNGRAKGRQFGSKCNSGDRIGCGIEPVSFDVQTAQIFFTKNGKRVGSTIMPMSPDGLFPAVGMHSLGEEVRLHLNAELGREDDSVMMVDSYEDEWGRLHDVRVCGTLLEYLGKGKSIVDVGLAQARHPLSTRSHYFEVEIVDPGEKCYIALGLARKDYPKNRHPGWSRGSVAYHADDGKIFHGSGVGDPFGPRCYKGDIMGCGIMFPRDYILDSEGDSDDSCDTVILSPTARAVRNVRNVMYLHQEGEEEEEEEEEEEDGEEIEPEHEGRKVVVFFTRNGKIIGKKDAVVPSGGFFPTIGMLSCGEKVKVDLHPLSG
With B1, the binding entry in test [1] and in [5] was “binds” throughout.

B2: HA-tagged SPRYD3 (SPRY-domain containing protein 3), transiently expressed in 293T cells (protein, UniProt Q8NCJ5 1-442)
chain: MRRTRRPRFVLMNKMDDLNLHYRFLNWRRRIREIREVRAFRYQERFKHILVDGDTLSYHGNSGEVGCYVASRPLTKDSNYFEVSIVDSGVRGTIAVGLVPQYYSLDHQPGWLPDSVAYHADDGKLYNGRAKGRQFGSKCNSGDRIGCGIEPVSFDVQTAQIFFTKNGKRVGSTIMPMSPDGLFPAVGMHSLGEEVRLHLNAELGREDDSVMMVDSYEDEWGRLHDVRVCGTLLEYLGKGKSIVDVGLAQARHPLSTRSHYFEVEIVDPGEKCYIALGLARKDYPKNRHPGWSRGSVAYHADDGKIFHGSGVGDPFGPRCYKGDIMGCGIMFPRDYILDSEGDSDDSCDTVILSPTARAVRNVRNVMYLHQEGEEEEEEEEEEEDGEEIEPEHEGRKVVVFFTRNGKIIGKKDAVVPSGGFFPTIGMLSCGEKVKVDLHPLSG
B2: the binding result in test [6] was “binds”.

B3: HA-tagged KCTD6 (potassium channel tetramerization domain containing 6), transiently expressed in 293T cells (protein, UniProt Q8NC69 1-237)
chain: MDNGDWGYMMTDPVTLNVGGHLYTTSLTTLTRYPDSMLGAMFGGDFPTARDPQGNYFIDRDGPLFRYVLNFLRTSELTLPLDFKEFDLLRKEADFYQIEPLIQCLNDPKPLYPMDTFEEVVELSSTRKLSKYSNPVAVIITQLTITTKVHSLLEGISNYFTKWNKHMMDTRDCQVSFTFGPCDYHQEVSLRVHLMEYITKQGFTIRNTRVHHMSERANENTVEHNWTFCRLARKTDD
As to B3, the binding entry in test [6] is “binds”.

B4: KCTD6 (form used in the co-precipitation told only in the discussion) (protein, UniProt Q8NC69 1-237)
chain: MDNGDWGYMMTDPVTLNVGGHLYTTSLTTLTRYPDSMLGAMFGGDFPTARDPQGNYFIDRDGPLFRYVLNFLRTSELTLPLDFKEFDLLRKEADFYQIEPLIQCLNDPKPLYPMDTFEEVVELSSTRKLSKYSNPVAVIITQLTITTKVHSLLEGISNYFTKWNKHMMDTRDCQVSFTFGPCDYHQEVSLRVHLMEYITKQGFTIRNTRVHHMSERANENTVEHNWTFCRLARKTDD
In the case of B4, the binding entry in [7], in [8] and in [9] was “no binding” in each case.

B5: endogenous RAE1 of 293T cells (protein, UniProt P78406 1-368)
chain: MSLFGTTSGFGTSGTSMFGSATTDNHNPMKDIEVTSSPDDSIGCLSFSPPTLPGNFLIAGSWANDVRCWEVQDSGQTIPKAQQMHTGPVLDVCWSDDGSKVFTASCDKTAKMWDLSSNQAIQIAQHDAPVKTIHWIKAPNYSCVMTGSWDKTLKFWDTRSSNPMMVLQLPERCYCADVIYPMAVVATAERGLIVYQLENQPSEFRRIESPLKHQHRCVAIFKDKQNKPTGFALGSIEGRVAIHYINPPNPAKDNFTFKCHRSNGTNTSAPQDIYAVNGIAFHPVHGTLATVGSDGRFSFWDKDARTKLKTSEQLDQPISACCFNHNGNIFAYASSYDWSKGHEFYNPQKKNYIFLRNAAEELKPRNKK
Take B5: the binding result in [1] and in test [5] was “binds” each time.

B6: HA-tagged RAE1 (Ribonucleic Acid Export protein 1), transiently expressed in 293T cells (protein, UniProt P78406 1-368)
chain: MSLFGTTSGFGTSGTSMFGSATTDNHNPMKDIEVTSSPDDSIGCLSFSPPTLPGNFLIAGSWANDVRCWEVQDSGQTIPKAQQMHTGPVLDVCWSDDGSKVFTASCDKTAKMWDLSSNQAIQIAQHDAPVKTIHWIKAPNYSCVMTGSWDKTLKFWDTRSSNPMMVLQLPERCYCADVIYPMAVVATAERGLIVYQLENQPSEFRRIESPLKHQHRCVAIFKDKQNKPTGFALGSIEGRVAIHYINPPNPAKDNFTFKCHRSNGTNTSAPQDIYAVNGIAFHPVHGTLATVGSDGRFSFWDKDARTKLKTSEQLDQPISACCFNHNGNIFAYASSYDWSKGHEFYNPQKKNYIFLRNAAEELKPRNKK
For B6, the binding entry in test [6] is given as “binds”.

For the origin of these results see paper PMC5749825.
